Experimental data reported in PubChem BioAssay AID624417 (National Center for Advancing Translational Sciences (NCATS), 2012).
Hit rate of the full screen: of about 410,000 compounds, about 6,400 (1.6%) were called active. The shares of active, inactive and inconclusive entries below differ from those in the screen. Calls come from the whole dose curve; as a rule, active = well fitted inhibition curve with a large enough effect; inconclusive = small, poorly fitted or top-dose-only effect; inactive = no such curve, though single readings can be large or run the other way. Potencies of inconclusive entries are left out as doubtful fits.
% is set by controls: 0 for no effect and ±100 for the full control effect; potency is the fitted concentration of half-maximal effect; tags give direction and shape of the fitted curve.
Note: nearly all actives have a fitted effect of over 55% in size.

What follows are compounds tested against Glucagon-like peptide 1 receptor (Homo sapiens) (UniProt P43220) (assay: qHTS of GLP-1 Receptor Inverse Agonists (Inhibition Mode)). Details: HEK293 GLP-1R CRE-luciferase, luminescence, 24 h, GLP-1R form is constitutively active; activity change, negative = inhibition: at 38.3 µM (top of the series) unless noted.
UniProt P43220, sequence (P43220 whole entry, looked up): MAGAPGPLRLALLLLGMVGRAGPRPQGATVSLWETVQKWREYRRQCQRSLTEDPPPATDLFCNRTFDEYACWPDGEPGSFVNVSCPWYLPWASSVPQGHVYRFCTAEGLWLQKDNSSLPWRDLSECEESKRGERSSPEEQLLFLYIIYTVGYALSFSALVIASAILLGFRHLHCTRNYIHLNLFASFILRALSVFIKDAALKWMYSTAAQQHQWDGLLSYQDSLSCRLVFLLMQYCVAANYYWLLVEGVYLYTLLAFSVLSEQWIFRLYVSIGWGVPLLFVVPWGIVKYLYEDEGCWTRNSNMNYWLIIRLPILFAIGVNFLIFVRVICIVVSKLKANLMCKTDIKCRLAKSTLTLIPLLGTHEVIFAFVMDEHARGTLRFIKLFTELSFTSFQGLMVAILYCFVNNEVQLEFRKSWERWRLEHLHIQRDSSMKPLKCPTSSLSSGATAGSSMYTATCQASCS
How it was run: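 Readout was luciferase luminescence, measured 12 min after detection reagent at room temperature. Beforehand, GLP-1R reporter HEK293 cells had sat 12 h, then received compounds for 24 hr at 37 deg C.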
In the case of `O=C(Nc1ccnn1C1CCN(C/C=C/c2ccccc2)CC1)c1cccc(F)c1`, the Potency is reported as inconclusive [inhibitor, single point].
In the case of `COc1ccc(-c2nn(-c3ccccc3)cc2CN2CCCO2)c(F)c1`, the Potency is reported as inconclusive [inhibitor, single point].
For `COc1ccc(CNC(=O)CCCN2C(=O)CSc3c2c(C)nn3-c2ccccc2)c(OC)c1`, the Potency was inconclusive [inhibitor, partial curve, poor fit].
`O=C(CNc1ccc(Br)cc1)Nc1cccc(S(=O)(=O)N2CCCC2)c1` was tested, and the Potency was inconclusive [inhibitor, partial curve, poor fit].
For `Cc1cc(OCC(=O)N(C)C2CCCCC2)cc(C)c1Cl`, the Potency was inconclusive [inhibitor, single point].
In the case of `O=C(c1cccs1)N1CCOCC1`, the Potency is reported as inconclusive [inhibitor, partial curve, poor fit].
For `O=C(COc1ccc2ccccc2c1)N1CCN(c2ccccc2O)CC1`, the Potency was inconclusive [inhibitor, partial curve, poor fit].
With `CCN(CC(=O)Nc1cc(Cl)ccc1C)C(=O)CSCc1ccc(C)cc1` the Potency was active: 10 µM.
With `COc1ccc(CN(C(=O)Nc2cccc(Cl)c2)c2ccccn2)cc1OC` the Potency was inconclusive [inhibitor, single point].
In the case of `Cc1cccc(C)c1OCc1cn(CC(=O)c2ccc(O)cc2)nn1`, the “activity change, negative = inhibition” value is reported as inactive: 9%.
With `CC[C@]12c3[nH]c4ccc(Cl)cc4c3CCN1C(=O)[C@@H](CC(=O)NC/C=C(\C)CCC=C(C)C)C[C@@H]2C(=O)N1CCN(C(=O)c2ccco2)CC1` the Potency was inconclusive [inhibitor, partial curve, poor fit].
`Cc1ccc(CNC(=O)C(=O)NCC2OCCN2S(=O)(=O)c2ccc(Cl)cc2)cc1` (stereo not drawn) was tested, and the Potency was inconclusive [inhibitor, partial curve, poor fit].
`O=C(C1CC1)N1CCc2cc(Br)cc(S(=O)(=O)NC3CCCCC3)c21` was tested, and the Potency was inconclusive [inhibitor, partial curve, poor fit].
For `CCO[C@H]1OC(C(=O)NCc2ccccc2)=C[C@@H](C2CCCCC2)[C@@H]1CCCO`, the Potency was inconclusive [inhibitor, partial curve, poor fit].
`O=C(NCCc1ccc(Cl)cc1)C1CCN(S(=O)(=O)c2ccc(Br)s2)CC1` was tested, and the Potency was inconclusive [inhibitor, partial curve, poor fit].
With `O=C(CSc1nc2ccccc2o1)NC(=O)NCc1ccccc1` the Potency was inconclusive [inhibitor, single point].
In the case of `CC(C)Oc1ccc(C(=O)NC(=S)Nc2ccc(Cl)c(C(=O)O)c2)cc1`, the “activity change, negative = inhibition” value is reported as inactive: 10.5%.
`COc1ccc(CN2CCC(Oc3ccc(C(=O)N4CCCC4)cc3)CC2)c(F)c1` was tested, and the Potency was inconclusive [inhibitor, partial curve, poor fit].
In the case of `Cc1cc(C(=O)CN2C(=O)C(=O)N(Cc3ccco3)C2=O)c(C)n1CCc1ccccc1`, the Potency is reported as inconclusive [inhibitor, full curve, poor fit].
For `O=C(CN1CCCC1)Nc1cc(C(F)(F)F)cc(C(F)(F)F)c1`, the Potency was inconclusive [inhibitor, partial curve, poor fit].
For `Cc1noc(C)c1CSc1ncnc2sc(C)c(C)c12`, the “activity change, negative = inhibition” value was inactive: 33.5%.
With `CN(Cc1ccc(-n2cccn2)cc1)Cc1cn(C)nc1-c1ccccc1F` the Potency was inconclusive [inhibitor, single point].
In the case of `CC(=O)Nc1cc2nc(C)n(Cc3ccc([N+](=O)[O-])cc3)c2nc1C`, the “activity change, negative = inhibition” value is reported as inactive: 12.1%.
In the case of `CCNCc1cc(OCC)c(OCC(=O)NCCc2ccccc2)cc1Cl`, the Potency is reported as inconclusive [inhibitor, single point].
`Cc1cccc2sc(N(CCCN(C)C)C(=O)c3ccco3)nc12` was tested, and the Potency was inconclusive [inhibitor, partial curve].
With `COc1ccc(C(=O)COC(=O)/C=C/c2ccc(S(=O)(=O)Nc3cccc(S(N)(=O)=O)c3)cc2)cc1` the Potency was inconclusive [inhibitor, full curve, poor fit].
For `CN(C)C=NC(=O)c1cc2c(n(-c3ccccc3)c1=O)CC(C)(C)CC2=O`, the “activity change, negative = inhibition” value was inactive: 3.41%.
In the case of `COc1ccccc1C(CNC(=O)C1COc2ccccc2O1)N1CCCC1` (stereo not drawn), the Potency is reported as inconclusive [inhibitor, single point].
With `CCc1cccc(C)c1NC(=O)CCCSc1nc2ccccc2s1` the Potency was inconclusive [inhibitor, partial curve].
With `CCCCOc1ccc(C(C)NC(=O)c2cccc(Nc3nc4ccccc4n4nnnc34)c2)cc1` (stereo not drawn) the “activity change, negative = inhibition” value was inactive: 13%.
With `COc1cc(NC(=O)C2CCCCN2)ccc1OCC(C)C` (stereo not drawn) the Potency was inconclusive [inhibitor, single point].
With `COCCNC(=S)NC12CC3CC(CC(C3)C1)C2` the Potency was inconclusive [inhibitor, single point].
In the case of `CCCCn1c(CNC(=O)C23CC4CC(CC(C4)C2)C3)nnc1SCC(=O)Nc1nnc(C)s1`, the “activity change, negative = inhibition” value is reported as inactive: 10.4%.
With `O=C(CCCN1C(=O)/C(=C/c2ccccc2)SC1=S)Nc1cccc(O)c1` the Potency was inconclusive [inhibitor, single point].
For `Cc1ccc(NC(=O)CN2CCc3ccccc3C2)cc1S(=O)(=O)N(C)C`, the Potency was inconclusive [inhibitor, single point].
In the case of `CCCn1c(=O)c2sccc2n2c(CCCC(=O)Nc3ccc(Oc4ccc(Cl)cc4)cc3)nnc12`, the Potency is reported as inconclusive [inhibitor, single point].
For `COc1cc(C(=O)OCC(=O)c2c(N)n(C)c(=O)n(C)c2=O)ccc1OCCC(C)C`, the activity change, negative = inhibition was inactive: 12.8% [at 7.66 µM].
With `CN(CC(=O)Nc1ccccc1C(F)(F)F)C(=O)c1cc2c(s1)CCCCC2` the Potency was inconclusive [inhibitor, single point].
With `COc1ccc(NC(=O)CC2C(=O)N(C)C(=S)N2CCc2ccc(F)cc2)cc1` (stereo not drawn) the Potency was active: 11.2 µM.
In the case of `CCOC(=O)c1[nH]c2ccc(OC)cc2c1NC(=S)N1CCN(c2ccccc2OC)CC1`, the Potency is reported as inconclusive [inhibitor, partial curve].
`CCc1c(C(=O)NCCc2cccc(C)c2)[nH]c(C)c1C(C)=O` was tested, and the Potency was inconclusive [inhibitor, partial curve, poor fit].
In the case of `CCN(CCO)c1ccc(Nc2cc(-c3ccc(-c4ccccc4)cc3)ncn2)cc1`, the Potency is reported as inconclusive [inhibitor, single point].
In the case of `NC(=S)N/N=C\c1c2ccccc2cc2ccccc12`, the Potency is reported as inconclusive [inhibitor, partial curve, poor fit].
For `NS(=O)(=O)c1ccc(CCNC(=O)CCS(=O)(=O)c2ccc(Br)cc2)cc1`, the “activity change, negative = inhibition” value was inactive: 16.1%.
With `Cc1ccc(-c2csc(NC(=O)c3c(C)noc3C)n2)cc1C` the Potency was inconclusive [inhibitor, single point].
In the case of `COc1cccc(-c2nnc(SCC(=O)NC3CCCCC3)o2)c1`, the “activity change, negative = inhibition” value is reported as inactive: -6.74%.
`C1CCCCCC2(CCCCC1)OCC(CN1CCOCC1)O2` (stereo not drawn) was tested, and the Potency was inconclusive [inhibitor, single point].
In the case of `O=C(OCc1cccc(Cl)c1)c1cc([N+](=O)[O-])ccc1N1CCOCC1`, the Potency is reported as inconclusive [inhibitor, partial curve, poor fit].
In the case of `CCCCOc1ccc(S(=O)(=O)Nc2ccc(-c3ccc(N4CCC(C)CC4)nn3)cc2)cc1`, the Potency is reported as inconclusive [inhibitor, partial curve, poor fit].
For `CCN(CC)S(=O)(=O)c1cccc2c(N(C)C)cccc12`, the Potency was inconclusive [inhibitor, single point].
With `CSc1ncc(CN2CCCC(C(=O)Nc3ccc(-c4ccco4)cc3)C2)cn1` (stereo not drawn) the Potency was inconclusive [inhibitor, partial curve, poor fit].
In the case of `CSCC[C@H](NC(=O)COc1ccc(Cl)cc1Cl)c1nc2ccccc2[nH]1`, the Potency is reported as inconclusive [inhibitor, single point].
With `Cc1cc(C(F)(F)F)nc(SCC(=O)Nc2cc(C)on2)n1` the “activity change, negative = inhibition” value was inactive: 4.93%.
With `COc1ccc(NC(=O)C(c2cc3ccccc3o2)n2c(=O)c(-c3cc4ccccc4[nH]3)nc3ccccc32)cc1` (stereo not drawn) the Potency was inconclusive [inhibitor, full curve, poor fit].
`COc1ccccc1-n1c(=O)[nH]c2c(C(N)=O)nc(C3CCCCC3)nc21` was tested, and the “activity change, negative = inhibition” value was inactive: -8.18%.
In the case of `CN(C)c1nc(N)nc(N(c2ccccc2)c2ccccc2)n1`, the Potency is reported as inconclusive [inhibitor, partial curve, poor fit].
`CCC(=O)Nc1cccc(C(=O)c2ccc(C)c(C)c2)c1` was tested, and the Potency was inconclusive [inhibitor, single point].
In the case of `O=C(OCC(=O)C12CC3CC(CC(C3)C1)C2)c1ccccc1O`, the Potency is reported as inconclusive [inhibitor, full curve].
In the case of `CSc1ccc(CNc2nnnn2C)cc1`, the “activity change, negative = inhibition” value is reported as inactive: 13.5%.
`CCOC(=O)c1c(NC(=O)COC(=O)Cc2c[nH]c3ccccc23)sc(C(=O)N(C)C)c1C` was tested, and the Potency was inconclusive [inhibitor, partial curve, poor fit].
`COCCCNC(=O)c1ccc(-n2c(-c3ccccc3)cc3c2CCC(C)C3)cc1` (stereo not drawn) was tested, and the Potency was active: 10 µM.
With `COc1ccc(CN(C)CC(=O)Nc2cccc(S(N)(=O)=O)c2)c(OC)c1OC` the “activity change, negative = inhibition” value was inactive: 16%.
For `CC(=O)Nc1cccc(C(=O)OCC(=O)Nc2c(C)nn(-c3ccccc3)c2C)c1`, the Potency was inconclusive [inhibitor, partial curve].
